{"source": "ChEMBL document CHEMBL1800027", "about": "“Imidazolopiperazines: hit to lead optimization of new antimalarial agents” (J Med Chem, 2011)", "key": {"[1]": {"conditions": "PAMPA"}, "in vivo [2]": {"test": "in vivo", "conditions": "female, CD1, mouse, iv, 5 mg/kg"}, "in vivo [3]": {"test": "in vivo", "conditions": "female, CD1, mouse, iv, 5 mg/kg", "remark": "listed apart in the source"}, "in vivo [4]": {"test": "in vivo", "conditions": "female, CD1, mouse, iv, 5 mg/kg", "remark": "listed apart in the source"}, "in vivo [5]": {"test": "in vivo", "conditions": "female, CD1, mouse, plasma, po, 30 mg/kg"}, "in vivo [6]": {"test": "in vivo", "conditions": "female, CD1, mouse, po, 30 mg/kg"}, "in vitro": {"test": "in vitro", "conditions": "human, Caco-2"}, "in vivo [7]": {"test": "in vivo", "conditions": "female, CD1, mouse, iv, 5 mg/kg", "remark": "listed apart in the source"}}, "data": [{"smiles": "CC(C)(N)C(=O)N1CCn2c(nc(-c3cccc(F)c3)c2Nc2ccc(F)cc2)C1", "values": [{"measurement": "permeability", "setting": "[1]", "value": 92, "unit": "%"}, {"measurement": "clearance", "setting": "in vivo [2]", "value": 134, "unit": "mL/min/kg"}, {"measurement": "half-life", "setting": "in vivo [3]", "value": 2.3, "unit": "h"}, {"measurement": "AUC(0-inf)", "setting": "in vivo [4]", "value": 1.32, "unit": "µM·h"}, {"measurement": "AUC(0-inf)", "setting": "in vivo [5]", "value": 3.72, "unit": "µM·h"}, {"measurement": "half-life", "setting": "in vivo [6]", "value": 2.3, "unit": "h"}, {"measurement": "Papp A→B", "setting": "in vitro", "value": 1.07, "unit": "×10⁻⁶ cm/s"}]}, {"smiles": "Cc1ccc(Nc2c(-c3ccc(F)cc3)nc3n2CCN(C(=O)CN)C3)cc1", "values": [{"measurement": "permeability", "setting": "[1]", "value": 52, "unit": "%"}, {"measurement": "clearance", "setting": "in vivo [2]", "value": 222, "unit": "mL/min/kg"}, {"measurement": "half-life", "setting": "in vivo [3]", "value": 3.6, "unit": "h"}, {"measurement": "AUC(0-inf)", "setting": "in vivo [4]", "value": 0.976, "unit": "µM·h"}, {"measurement": "AUC(0-inf)", "setting": "in vivo [5]", "value": 2.34, "unit": "µM·h"}, {"measurement": "half-life", "setting": "in vivo [6]", "value": 4.8, "unit": "h"}, {"measurement": "Papp A→B", "setting": "in vitro", "value": 1.63, "unit": "×10⁻⁶ cm/s"}]}, {"smiles": "Cc1ccc(Nc2c(-c3ccc(F)cc3)nc3n2CCN(C(=O)C(C)(C)N)C3)cc1", "values": [{"measurement": "permeability", "setting": "[1]", "value": 96, "unit": "%"}, {"measurement": "Vd", "setting": "in vivo [7]", "value": 41.1, "unit": "L/kg"}, {"measurement": "clearance", "setting": "in vivo [2]", "value": 42, "unit": "mL/min/kg"}, {"measurement": "half-life", "setting": "in vivo [3]", "value": 13.7, "unit": "h"}, {"measurement": "AUC(0-inf)", "setting": "in vivo [4]", "value": 5.25, "unit": "µM·h"}, {"measurement": "AUC(0-inf)", "setting": "in vivo [5]", "value": 18, "unit": "µM·h"}, {"measurement": "half-life", "setting": "in vivo [6]", "value": 15.5, "unit": "h"}, {"measurement": "Papp A→B", "setting": "in vitro", "value": 0.96, "unit": "×10⁻⁶ cm/s"}]}, {"smiles": "NCC(=O)N1CCn2c(nc(-c3ccc(F)cc3)c2Nc2ccc(Cl)c(F)c2)C1", "values": [{"measurement": "permeability", "setting": "[1]", "value": "impermeable"}, {"measurement": "Vd", "setting": "in vivo [7]", "value": 1.5, "unit": "L/kg"}, {"measurement": "clearance", "setting": "in vivo [2]", "value": 10.3, "unit": "mL/min/kg"}, {"measurement": "half-life", "setting": "in vivo [3]", "value": 3.8, "unit": "h"}, {"measurement": "AUC(0-inf)", "setting": "in vivo [4]", "value": 20.6, "unit": "µM·h"}, {"measurement": "AUC(0-inf)", "setting": "in vivo [5]", "value": 6.17, "unit": "µM·h"}, {"measurement": "half-life", "setting": "in vivo [6]", "value": 3.6, "unit": "h"}, {"measurement": "Papp A→B", "setting": "in vitro", "value": 0.75, "unit": "×10⁻⁶ cm/s"}]}]}
